This is an account of results in paper PMC4752459.

These are yes or no findings as the source states them, for the method shown. In cells and extracts the contact can be indirect. Some entries that bind do so weakly or less than the wild type.

T1: Shs1-CCG (S. cerevisiae) (UniProt Q07657)
T1 sequence: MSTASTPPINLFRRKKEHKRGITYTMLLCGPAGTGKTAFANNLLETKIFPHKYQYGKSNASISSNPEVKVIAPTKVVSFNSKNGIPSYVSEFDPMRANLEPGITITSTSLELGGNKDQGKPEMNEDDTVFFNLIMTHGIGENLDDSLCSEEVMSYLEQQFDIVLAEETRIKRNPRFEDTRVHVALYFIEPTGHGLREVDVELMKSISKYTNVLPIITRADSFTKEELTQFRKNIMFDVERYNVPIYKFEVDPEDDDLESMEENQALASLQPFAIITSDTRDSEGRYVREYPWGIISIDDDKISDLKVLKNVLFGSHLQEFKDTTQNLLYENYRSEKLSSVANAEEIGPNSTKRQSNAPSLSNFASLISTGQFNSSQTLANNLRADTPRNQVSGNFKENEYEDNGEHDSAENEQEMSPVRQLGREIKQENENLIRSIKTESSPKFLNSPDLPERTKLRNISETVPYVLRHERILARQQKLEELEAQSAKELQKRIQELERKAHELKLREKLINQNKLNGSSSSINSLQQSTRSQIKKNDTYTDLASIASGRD

B1: Nub-Prk1 (protein, UniProt P40494 1-810)
chain: MNTPQISLYEPGTILTVGSHHAKIIKYLTSGGFAQVYTAEISPPDPYSNANIACLKRVIVPHKQGLNTLRAEVDAMKLLRNNKHVVSYIDSHAARSVNGIAYEVFVLMEFCERGGLIDFMNTRLQNRLQESEILEIMSQTVQGITAMHALQPPLIHRDIKIENVLISHDGLYKVCDFGSVSGVIRPPRNTQEFNYVQHDILTNTTAQYRSPEMIDLYRGLPIDEKSDIWALGVFLYKICYYTTPFEKSGEAGILHARYQYPSFPQYSDRLKNLIRLMLMEAPSQRPNICQVLEEVSRLQNKPCPIRNFYLLRAMNQNANTQLAGEPSSTTYVPTQKFIPVQSLQSINQPPNMMPVTHVSTTPNLGTFPISINDNNKTEVTAHAGLQVGSHSNLTSPLMKTKSVPLSDEFASLYYKELHPFQKSQTFKSVESFQSPQRKSMPPLSLTPVNNDIFDRVSAINRPNNYVDSETQTIDNMAVPNLKLSPTITSKSLSSTKEIAAPDNINGSKIVRSLSSKLKKVITGESRGNSPIKSRQNTGDSIRSAFGKLRHGFTGNSVNNSRSASFDNNNVNGNGNNTNRRLVSSSTSSFPKFNSDTKRKEESDKNQRLEKRRSMPPSILSDFDQHERNNSRTGSRDYYRSHSPVKKTQASAKTTSKPTLIPDNGNVNINQEKKESIQRRVHNLLKSSDDPVTYKSASGYGKYTDIGTETSNRHSSVRITPITEEKFKKTLKDGVLDIKTKSNGKDKSRPPRPPPKPLHLRTEIQKIRNFSRLQSKKLPIERISSEATETIVDVNVDDLEADFRKRFPSKV
B2: Nub-Coy1 (protein, UniProt P34237 1-679)
chain: MDTSVYSHALDIWAKADLTNLQRELDADVIEIKDKETLSLNSRKSLATETKKFKKLEPEEKLNNVNKIIKQYQREIDNLTQRSKFSEKVLFDVYEKLSEAPDPQPLLQSSLEKLGKIDDSKELKEKISYLEDKLAKYADYETLKSRLLDLEQSSAKTLAKRLTAKTQEINSTWEEKGRNWKEREADLLKQLTNVQEQNKALEAKISKNIDIEGNGNEDGDQENNQKEVSTRIAEYNLVTQELETTQARIYQLEKRNEELSGALAKATSEAEKETELHAKELKLNQLESENALLSASYEQERKSTSHAINELKEQLNSVVAESESYKSELETVRRKLNNYSDYNKIKEELSALKKIEFGVNEDDSDNDIRSEDKNDNTFESSLLSANKKLQATLAEYRSKSTAQEEERNELKKSVDQLKQQIATLKEANEKLETDLEKVENVSPHFNETASMMSGVTRQMNNRTSHKMSPTSSIIGIPEDGELSGNQSTILPIVTKQRDRFRSRNMDLEKQLRQGNSEKGKLKLEISKLKGDNTKLYERIRYLQSYNNNNAPVNQSTERIDVESQYSRVYDESLHPMANFRQNELNHYKNKKLSALEKLFSSFAKVILQNKMTRMVFLFYCIGLHGLVFMMSMYVINISGYMTPEVGIVQSAKSSSNLNGGLGGAEKVAAGVGSVHGINR
B3: Nub-Bni4 (protein, UniProt P53858 1-892)
chain: MSDSISDSKSSELLNSTFYSSTSINTLDHARTFRNSLILKEISDQSLNSSIKPCESVLDRDVESSVLQRSFGESNARDSEVQTVNMTTSPSLSALADILNERSKYADQKTRKAQNIESSIIEEEEEAEEQNNSINYHEDITGSRLSVREEANENLAMTSPNLIDIDGSNSIQVAPLSLPSFEEPDFLSTPRVKPDSQGPRSKVSTRRTILERDNNLPVKREENTIINSETESTTHSAPFLKEDPKPSPPSSKLYNPKVRLNKAEARKYTDSSAQRTTSAGSVLEDTSMHKKKKSIFSFLKKKEPKPVIGNNSVTNEKNKMSSSSTFSMNIQTSLKTPEKLKKKSHSSSSIFNSFLKGKIETSDSPRKEPMRQKKRTPKSKDKKQDTEQIIDAASVLSTESPLLRKNHDDTPVKIDHVTRSIDQRKPTPLNMDLILGGDKQINTPLQEHVREDDDAKNDLQLPTKDNFLSLDYEAPSPAFSKHDTGEVLFPKFLDNHEVDSIVSLERTRSTKSNKRSSMNSQRRSLTDTLSIKAQSEGMFITEASSVVLSTPDLTKSPASSILKNGRFEYSDNFSREHSYEGTTNEDFLDIKDDSGPLKKDDIFLESIEQKFDQLVMASDEEKTEVERDVPKPREEPLKKDSERQSVFADDDNELISDIMEFASFINFGDDDLNLDLDLGDTTASYATETPEPVGNDEVNRSGTFDTRNNKEDSYKERETQSYSAAGATTYGDERQGQLHTFEQDGSEINDNEFENEDFNKHIEQPIEVTPRNNAYLPEFEPNRPVSMSFKGLKAPRMNTSFIDSMTPDSPVKSDLTSLGEVYVNSNNDQGVRFSSQIILYDTYGEFEYDRHPEISTCNQLTPQLAQMIKLELNELKSAMEVHDDSRCYTHFY
B4: Nub-Mrc1 (protein, UniProt P25588 1-1096)
chain: MDDALHALSSLTAKKRTTTYKKVAVPILDENDNTNGNGPNDIDNPPELTGNGFLFANATLNRVKNRLEGKKAPEQNHNNGKDRSENSLPTQLISNLYDGGEELEKSEVKDNSYSEKNVSSSFTQTQRIPVSIQQDKVFNVPIHSVNDGKPTQLIKEDGLVNETSQALKTPLTTGRPGATQRIDSSGATSQTQPIKSIEPQSQIITTSSNHSNALSPKIPIIPTELIGTSPLFQSIQNRGPDTQMDVPPQTAHDEDKTQAIGIPQATHQEQKTQIDTVAQTLQDEVPHTLKIREIQSELASEDSKREKARNVEYKKPQKPIPTKKFFSKESFLADFDDSSSNEDDDIKLENAHPKPVQNDDELHENKSVELNLTDETRINEKRVPLLSSYANNLKREIDSSKCITLDLDSDSDEYGDDDMDSIKLSKDESVLPISQLSKATILNLKARLSKQNQKLSQRPNKSKDPKVDHNVLLNTLRKASRKQILDHQKEVIETKGLKLEDMAKEKEIVENLLEQEILRNKRIRQKEKRREKLEENDFQLNAHDSGSDSGSESSGFALSGNEIADYESSGSENDNRRESDSEKEDDEIILKQKKSHHVKHIINESDSDTEVEAKPKEKADESLPKRIAINLGHYGDNIGEDTDKFQETNVLDTQNIEEVMAERNTIENEVKDDVYVNEEADEAIRRQLIDKEKLQLKQKEKEHEAKIKELKKRGVTNFFEMEAEESEDEWHGIGGADGEGSDDYDSDLEKMIDDYSKNNFNPHEIREMLAAENKEMDIKMINKILYDIKNGGFRNKRAKNSLELELSDDDEDDVLQQYRLKRRELMRKRRLEIGDDAKLVKNPKSSAFFESMVEDIIEYKNPFGAEEEYNLDITSTATDLDTQDNSINVGDNTGNNEQKPVDQKNKKVIISEDFVQKSLSFLKSNNYEDFETDKELSRIQHGNDEAIEDLYTLKQNSSIKSFTNSQTDSTTSKTVNTIIDLEKRPEDEDEVENGDTSLVGVFKHPSIIKSFASRTDINDKFKEGNKTVKILKSYKTVGSSKASITYMGKTRKLIAPKRKTEGSHRYHHDHHNKKMKMKTKTKSNKLFESGQDSFDN
B5: Nub-Nap1 (protein, UniProt P25293 1-417)
chain: MSDPIRTKPKSSMQIDNAPTPHNTPASVLNPSYLKNGNPVRAQAQEQDDKIGTINEEDILANQPLLLQSIQDRLGSLVGQDSGYVGGLPKNVKEKLLSLKTLQSELFEVEKEFQVEMFELENKFLQKYKPIWEQRSRIISGQEQPKPEQIAKGQEIVESLNETELLVDEEEKAQNDSEEEQVKGIPSFWLTALENLPIVCDTITDRDAEVLEYLQDIGLEYLTDGRPGFKLLFRFDSSANPFFTNDILCKTYFYQKELGYSGDFIYDHAEGCEISWKDNAHNVTVDLEMRKQRNKTTKQVRTIEKITPIESFFNFFDPPKIQNEDQDEELEEDLEERLALDYSIGEQLKDKLIPRAVDWFTGAALEFEFEEDEEEADEDEDEEEDDDHGLEDDDGESAEEQDDFAGRPEQAPECKQS
B6: Nub-Ppz2 (protein, UniProt P33329 1-710)
chain: MGNSGSKQHTKHNSKKDDHDGDRKKTLDLPPLTKSDTTHSLKSSRSLRSLRSKRSEASLASNVQAQTQPLSRRSSTLGNGNRNHRRSNNAPITPPNNHYLTSHPSSSRRLSSSSRRSSMGNNNNSELPPSMIQMEPKSPILKNSTSMHSTSSFNSYENALTDDDDDRGDDGGESPSMAKVTRINTSSSADRGSKRTPLRRHNSLQPEKGVTGFSSTSSKLRRRSDNTLPASYPLNAEAGGNGSDYFSNRSNSHASSRKSSFGSTGNTAYSTPLHSPALRKMSSRDNDDSGDNVNGRGTSPIPNLNIDKPSPSASSASKREYLSAYPTLAHRDSSSSLSPRGKGQRSSSSSSSSQRIYVSPPSPTGDFVHGSCADGDNGSRTNTMVEMKRKKPVRPVDIDEIIQRLLDAGYAAKRTKNVCLKNSEIIQICHKARELFLAQPALLELSPSVKIVGDVHGQYADLLRLFTKCGFPPMANYLFLGDYVDRGKQSLETILLLLCYKIKYPENFFLLRGNHECANVTRVYGFYDECKRRCNIKIWKTFVDTFNTLPLAAIVTGKIFCVHGGLSPVLNSMDEIRHVSRPTDVPDFGLINDLLWSDPTDSSNEWEDNERGVSFCYNKVAINKFLNKFGFDLVCRAHMVVEDGYEFFNDRSLVTVFSAPNYCGEFDNWGAVMTVSEGLLCSFELLDPLDSTALKQVMKKGRQERKLANR
B7: Nub-Ste20 (protein, UniProt Q03497 1-939)
chain: MSNDPSAVSELPDKDSLDNGISNDNERAMGGNGDGGDGLRLPRTTGTLNVNALQKGTNAAHEAGGYKSMDPAKNAETTNDDDNNVVSLDDPIQFTRVSSSSVISGMSSSMSPHSNIDETKSLEAVTPNINTSNITPDHSADNTFSTINASESDHQFNDTLLSKLSLTDSTETIENNATVKHQQPVASSTVNSNKSSTDIRRATPVSTPVISKPSMTTTPRQINSASHSLSNPKHKQHKPKVKPSKPEAKSKPVSVKKSFPSKNPLKNSSPPKKQTEKSYYSSSSKKRKSGSNSGTLRMKDVFTSFVQNIKRNSQDDKRASSSSNNSSSSSITTALRISTPYNAKHIHHVGVDSKTGEYTGLPEEWEKLLTSSGISKREQQQNMQAVMDIVKFYQDVTETNGEDKMFKTFNTTTGLPGSPQVSTPPANSFNKFPPSTSDSHNYGSRTGTPMSNHVMSPTLNTDSSSANGKFIPSRPAPKPPSSASASAPIIKSPVMNSAANVSPLKQTHAPTTPNRTSPNRSSISRNATLKKEEQPLPPIPPTKSKTSPIISTAHTPQQVAQSPKAPAQETVTTPTSKPAQARSLSKELNEKKREERERRKKQLYAKLNEICSDGDPSTKYANLVKIGQGASGGVYTAYEIGTNVSVAIKQMNLEKQPKKELIINEILVMKGSKHPNIVNFIDSYVLKGDLWVIMEYMEGGSLTDVVTHCILTEGQIGAVCRETLSGLEFLHSKGVLHRDIKSDNILLSMEGDIKLTDFGFCAQINELNLKRTTMVGTPYWMAPEVVSRKEYGPKVDIWSLGIMIIEMIEGEPPYLNETPLRALYLIATNGTPKLKEPENLSSSLKKFLDWCLCVEPEDRASATELLHDEYITEIAEANSSLAPLVKLARLKKVAENMDADEDNDDDNDNEHINKTNNCDDNNDSKETVNLDVTEDDKQK

For this assay, the target named is T1, Shs1-CCG (S. cerevisiae). Put plainly: split reporter; steady-state SPLIFF (split-ubiquitin, mCherry-Cub-GFP): diploid cells with Shs1-CCG and a Nub fusion, 100 μM Cu2+, GFP/mCherry ratio at the bud neck; strong > 70%, weak > 30%, below 30% CCG to CC conversion non-interacting.
As for B1, the binding result was “no binding”. As for B2, the entry is “no binding”. As for B3, the entry is “no binding”. Consider B4, for which the binding entry is “binds weakly”.

As for B5, the binding result was “no binding”.

Consider B6, for which the binding entry is “no binding”.

Turning to B7, the binding result is “binds weakly”.
